Data published in the antibiotic and cytotoxicity screens of Wong et al. (2023).
Some of the results follow.

Legend:
HSkMC = human skeletal muscle cells; assay: cytotoxicity call (relative viability < 0.9); settings: 10 µM
HepG2 = assay: cytotoxicity call (relative viability < 0.9); settings: 10 µM
S. aureus RN4220 = assay: growth inhibition call (relative growth <= 0.2); settings: 50 µM

| Compound | cytotoxicity call (HSkMC) | cytotoxicity call (HepG2) | growth inhibition call (S. aureus RN4220) |
| --- | --- | --- | --- |
| O=C1c2ccccc2-c2nc(-c3ccccc3)cc3cccc1c23 | inactive | inactive | inactive |
| COCCCNC(=O)[C@@]1(Sc2ccc(C)cc2)CC(=O)N(Cc2ccccc2Cl)[C@@H]1c1ccc(CO)cc1 | inactive | inactive | inactive |
| CO[C@@H](CN(C)C(=O)c1ccc2c(c1)OCO2)[C@H](C)CN([C@H](C)CO)S(=O)(=O)c1ccc(C)cc1 | inactive | inactive | inactive |
| COc1ccccc1N1CCN(CC(O)COc2cccc3ccccc23)CC1 (stereo not given) | inactive | active | inactive |
| C[C@H]1CN([C@@H](C)CO)C(=O)c2cc(C#CCN(C)C)cnc2O[C@@H]1CN(C)C(=O)c1ccc2c(c1)OCO2 | inactive | inactive | inactive |
| C[C@@H]1CN([C@@H](C)CO)C(=O)Cc2cc(NC(=O)Nc3ccc(F)cc3)ccc2O[C@H]1CN(C)Cc1ccc(-c2ccccc2)cc1 | inactive | active | inactive |
| C[C@@H]1CN([C@H](C)CO)C(=O)c2cc(NC(=O)c3ccccc3)ccc2O[C@@H](C)CCCCO[C@@H]1CN(C)C(=O)Cc1ccccc1 | inactive | inactive | inactive |
| Cc1ccc(S(=O)(=O)Nc2ccc3c(c2)CC(=O)N([C@@H](C)CO)C[C@@H](C)[C@H](CN(C)CC2CC2)O3)cc1 | inactive | inactive | inactive |
| C[C@H](CO)N1C[C@H](C)[C@H](CN(C)C(=O)C2CCOCC2)Oc2ncc(C#Cc3cccc(F)c3)cc2C1=O | inactive | inactive | inactive |
| COC(=O)[C@@H]1OC(=O)[C@H]2O[C@@]23[C@]2(C)[C@@H](O)C[C@H]4C(C)(C)[C@H](OC(C)=O)C[C@H](OC(C)=O)[C@]4(C)[C@@H]2CC[C@@]13C | inactive | inactive | inactive |
